The IC50 comes from the fitted curve, where viability falls to half of the control; fits outside the tested doses are given as limits. AUC is the area under the same curve over the 256-fold range up to the top dose, as a fraction; it is 1 without any effect and falls as sensitivity rises. The top dose, if marked as inferred, comes from the curve model; the source does not state it.
Tests used:
FR-180204 = compound: Nc1[nH]nc2nnc(-c3c(-c4ccccc4)nn4ccccc34)cc12 [FR-180204]; assay: Viability of human cancer cell lines after 72 h of drug (GDSC screen); settings: top dose 20 µM; top dose inferred
Protocol: (§1)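 Human cancer cell lines in 384-well plates, medium with 10% serum, drug for 72 h over a 256-fold dose range (nine 2-fold or five 4-fold steps up to the top dose). Adherent lines were fixed and stained with the nucleic acid dye Syto60, suspension lines read with resazurin; signal relative to control wells, capped at 0 and 100%. One two-parameter sigmoid per drug and line, fitted in a mixed model over all curves with the slope shared within a line.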

FK866 = compound: O=C(/C=C/c1cccnc1)NCCCCC1CCN(C(=O)c2ccccc2)CC1 [FK866]; assay: as above; settings: top dose 1 µM; top dose inferred
Protocol: as §1

| Cell Line | AUC (FR-180204) | IC50 (FR-180204) [nM] | AUC (FK866) | IC50 (FK866) [nM] |
| --- | --- | --- | --- | --- |
| HCC1806 (breast, adherent) | 0.968 | > 20000 | 0.324 | 21.1 |
| HCC1937 (breast, adherent) | 0.978 | > 20000 | 0.948 | > 1000 |
| HCC1954 (breast, adherent) | 0.984 | > 20000 | 0.945 | > 1000 |
| HCC2157 (breast, suspension) | 0.987 | > 20000 | 0.297 | 16.3 |
| HCC2218 (breast, suspension) | 0.971 | > 20000 | 0.573 | 104 |
| HCC2998 (large intestine, adherent) | 0.988 | > 20000 | 0.364 | 26.6 |
| HCC-15 (lung squamous cell carcinoma, adherent) | 0.978 | > 20000 | 0.979 | > 1000 |
| HCC-44 (lung adenocarcinoma, adherent) | 0.985 | > 20000 | 0.376 | 28.7 |
| HCC-56 (large intestine, adherent) | 0.987 | > 20000 | 0.986 | > 1000 |
| HCC-78 (lung adenocarcinoma, adherent) | 0.98 | > 20000 | 0.667 | 199 |
| HCC-827 (lung adenocarcinoma, adherent) | 0.889 | > 20000 | 0.905 | > 1000 |
| HCE-4 (oesophagus, adherent) | 0.992 | > 20000 | 0.281 | 16.7 |
| HCT-15 (large intestine, adherent) | 0.971 | > 20000 | 0.724 | 283 |
| HCT-116 (large intestine, adherent) | 0.975 | > 20000 | 0.038 | < 3.91 |
| HD-MY-Z (Hodgkin lymphoma, adherent) | 0.965 | > 20000 | 0.093 | < 3.91 |
| HDLM-2 (Hodgkin lymphoma, suspension) | 0.989 | > 20000 | 0.077 | < 3.91 |
| HDQ-P1 (breast, adherent) | 0.955 | > 20000 | 0.935 | > 1000 |
| HEC-1 (endometrium, adherent) | 0.989 | > 20000 | 0.179 | 7.09 |
| HEL (acute myeloid leukaemia, semi-adherent) | 0.969 | > 20000 | 0.068 | < 3.91 |
| HGC-27 (stomach, adherent) | 0.989 | > 20000 | 0.017 | < 3.91 |
| HH (T-cell leukaemia, suspension) | 0.946 | > 20000 | 0.067 | < 3.91 |
| HL-60 (acute myeloid leukaemia, suspension) | 0.956 | > 20000 | 0.187 | 8.28 |
| HLE (liver, adherent) | 0.98 | > 20000 | 0.108 | < 3.91 |
| HMV-II (melanoma, adherent) | 0.967 | > 20000 | 0.642 | 170 |
| HN (head and neck, adherent) | 0.989 | > 20000 | 0.194 | 8.3 |

| Cell Line | AUC (FR-180204) | IC50 (FR-180204) [nM] | AUC (FK866) | IC50 (FK866) [nM] |
| --- | --- | --- | --- | --- |
| HO-1-N-1 (head and neck, adherent) | 0.978 | > 20000 | 0.406 | 35.3 |
| HO-1-u-1 (head and neck, adherent) | 0.973 | > 20000 | 0.71 | 237 |
| HOP-62 (lung adenocarcinoma, adherent) | 0.985 | > 20000 | 0.287 | 15.7 |
| HOP-92 (large cell lung carcinoma, adherent) | 0.973 | > 20000 | 0.784 | 496 |
| HOS (osteosarcoma, adherent) | 0.992 | > 20000 | 0.044 | < 3.91 |
| HPAC (pancreas, adherent) | 0.965 | > 20000 | 0.968 | > 1000 |
| HPAF-II (pancreas, adherent) | 0.927 | > 20000 | 0.784 | 571 |
| HSC-2 (head and neck, adherent) | 0.983 | > 20000 | 0.987 | > 1000 |
| HSC-3 (head and neck, adherent) | 0.99 | > 20000 | 0.197 | 9.41 |
| HSC-4 (head and neck, adherent) | 0.963 | > 20000 | 0.255 | 9.59 |
| HSC-39 (stomach, suspension) | 0.988 | > 20000 | 0.027 | < 3.91 |
| HT55 (large intestine, adherent) | 0.987 | > 20000 | 0.969 | > 1000 |
| HT (B-cell lymphoma, suspension) | 0.99 | > 20000 | 0.042 | < 3.91 |
| HT-3 (cervix, adherent) | 0.987 | > 20000 | 0.433 | 40.8 |
| HT-29 (large intestine, adherent) | 0.914 | > 20000 | 0.217 | 9.32 |
| HT-115 (large intestine, adherent) | 0.99 | > 20000 | 0.785 | 386 |
| HT-144 (melanoma, adherent) | 0.975 | > 20000 | 0.414 | 35.3 |
| HT-1080 (fibrosarcoma, adherent) | 0.989 | > 20000 | 0.053 | < 3.91 |
| HT-1197 (bladder, adherent) | 0.981 | > 20000 | 0.79 | 538 |
| HT-1376 (bladder, adherent) | 0.985 | > 20000 | 0.672 | 207 |
| HTC-C3 (thyroid, adherent) | 0.947 | > 20000 | 0.656 | 179 |
| HUTU-80 (digestive system, adherent) | 0.982 | > 20000 | 0.991 | > 1000 |
| HeLa (cervix, adherent) | 0.987 | > 20000 | 0.191 | 7.93 |
| Hey (ovary, adherent) | 0.979 | > 20000 | 0.032 | < 3.91 |
| Hs633T (fibrosarcoma, adherent) | 0.99 | > 20000 | 0.362 | 28.1 |

| Cell Line | AUC (FR-180204) | IC50 (FR-180204) [nM] | AUC (FK866) | IC50 (FK866) [nM] |
| --- | --- | --- | --- | --- |
| Hs683 (glioma, adherent) | 0.98 | > 20000 | 0.986 | > 1000 |
| Hs746T (stomach, adherent) | 0.981 | > 20000 | 0.792 | 638 |
| Hs766T (pancreas, adherent) | 0.984 | > 20000 | 0.872 | > 1000 |
| Hs939-T (melanoma, adherent) | 0.96 | > 20000 | 0.851 | 883 |
| Hs940-T (melanoma, adherent) | 0.98 | > 20000 | 0.797 | 589 |
| Hs-445 (Hodgkin lymphoma, suspension) | 0.98 | > 20000 | 0.988 | > 1000 |
| Hs-578-T (breast, adherent) | 0.987 | > 20000 | 0.982 | > 1000 |
| HuCCT1 (biliary tract, adherent) | 0.95 | > 20000 | 0.626 | 146 |
| HuH-7 (liver, adherent) | 0.987 | > 20000 | 0.986 | > 1000 |
| HuO9 (osteosarcoma, adherent) | 0.984 | > 20000 | 0.977 | > 1000 |
| HuO-3N1 (osteosarcoma, adherent) | 0.972 | > 20000 | 0.888 | > 1000 |
| HuP-T3 (pancreas, adherent) | 0.93 | > 20000 | 0.818 | 731 |
| IA-LM (large cell lung carcinoma, adherent) | 0.971 | > 20000 | 0.923 | > 1000 |
| IGR-37 (melanoma, adherent) | 0.953 | > 20000 | 0.493 | 59.9 |
| IHH-4 (thyroid, semi-adherent) | 0.988 | > 20000 | 0.024 | < 3.91 |
| IM-95 (stomach, adherent) | 0.948 | > 20000 | 0.633 | 149 |
| IMR-5 (neuroblastoma, adherent) | 0.991 | > 20000 | 0.02 | < 3.91 |
| IPC-298 (melanoma, adherent) | 0.981 | > 20000 | 0.472 | 52.6 |
| IST-MEL1 (melanoma, adherent) | 0.981 | > 20000 | 0.364 | 24.4 |
| IST-MES1 (mesothelioma, adherent) | 0.974 | > 20000 | 0.932 | > 1000 |
| IST-SL1 (small cell lung carcinoma, semi-adherent) | 0.982 | > 20000 | 0.086 | < 3.91 |
| J82 (bladder, adherent) | 0.988 | > 20000 | 0.949 | > 1000 |
| JAR (urogenital system, adherent) | 0.984 | > 20000 | 0.373 | 28.1 |
| JEG-3 (urogenital system, adherent) | 0.99 | > 20000 | 0.115 | 4.29 |
| JHH-1 (liver, adherent) | 0.908 | > 20000 | 0.983 | > 1000 |

| Cell Line | AUC (FR-180204) | IC50 (FR-180204) [nM] | AUC (FK866) | IC50 (FK866) [nM] |
| --- | --- | --- | --- | --- |
| JHH-2 (liver, adherent) | 0.971 | > 20000 | 0.946 | > 1000 |
| JHH-4 (liver, adherent) | 0.94 | > 20000 | 0.771 | 383 |
| JHH-6 (liver, adherent) | 0.979 | > 20000 | 0.831 | 645 |
| JHH-7 (liver, adherent) | 0.985 | > 20000 | 0.098 | < 3.91 |
| JHOS-2 (ovary, adherent) | 0.927 | > 20000 | 0.426 | 38 |
| JHOS-3 (ovary, adherent) | 0.933 | > 20000 | 0.951 | > 1000 |
| JHU-022 (head and neck, adherent) | 0.982 | > 20000 | 0.462 | 47.9 |
| JIMT-1 (breast, adherent) | 0.982 | > 20000 | 0.342 | 21.9 |
| JJN-3 (haematopoietic neoplasm, suspension) | 0.985 | > 20000 | 0.053 | < 3.91 |
| JM1 (B-cell lymphoma, suspension) | 0.985 | > 20000 | 0.022 | < 3.91 |
| JURL-MK1 (chronic myeloid leukaemia, suspension) | 0.882 | > 20000 | 0.049 | < 3.91 |
| JVM-2 (lymphoid neoplasm, suspension) | 0.974 | > 20000 | 0.065 | < 3.91 |
| JVM-3 (lymphoid neoplasm, suspension) | 0.967 | > 20000 | 0.118 | < 3.91 |
| JiyoyeP-2003 (Burkitt lymphoma, suspension) | 0.988 | > 20000 | 0.231 | 11.7 |
| K2 (melanoma, adherent) | 0.923 | > 20000 | 0.835 | 949 |
| K5 (thyroid, adherent) | 0.954 | > 20000 | 0.356 | 25.5 |
| K-562 (chronic myeloid leukaemia, suspension) | 0.942 | > 20000 | 0.04 | < 3.91 |
| KALS-1 (glioma, adherent) | 0.974 | > 20000 | 0.714 | 320 |
| KARPAS-45 (lymphoblastic leukaemia, suspension) | 0.95 | > 20000 | 0.958 | > 1000 |
| KARPAS-299 (anaplastic large cell lymphoma, suspension) | 0.992 | > 20000 | 0.329 | 22.9 |
| KARPAS-422 (B-cell lymphoma, suspension) | 0.979 | > 20000 | 0.129 | 4.23 |
| KARPAS-620 (haematopoietic neoplasm, suspension) | 0.986 | > 20000 | 0.078 | < 3.91 |
